In all, about 48,000 compounds went through this assay and about 120 (0.25%) were called active. Another 4% or so got no clear call; they are omitted. Calls follow the shape of the dose curve; as a rule, active = well fitted activation curve with a large enough effect; inconclusive = small, poorly fitted or top-dose-only effect, or another doubt; inactive = no such curve, though single readings can be large or run the other way. The list shows a part of the results.

The assay can be described thus: Primary qHTS for Identification of Small Molecule Activators of Huntingtin-Antisense Promoter Activity. Also: nearly all actives have a fitted effect of over 55% in size. The following applies: HEK293 HTT-AS promoter firefly luciferase reporter, 24 h; series mostly up to 57.5 µM; activity change, positive = activation: at the top concentration. The procedure, abridged: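 Firefly luciferase readout (Dual-Glo, 10 min RT) after 24 h, 37 °C compound exposure (final up to 57.5 uM) of HEK293 reporter cells cultured 24 h beforehand; PTC124 at 50 uM final as control inhibitor; activity scaled vehicle 0%, zero RLU -100%.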
In the case of `COc1cccc(OC)c1C(=O)Nc1cccc(-c2nc3cc(C)cc(C)c3o2)c1`, the “activity change, positive = activation” value was inactive: -4.63%. The figure for `COc1ccc(NC(=O)c2noc3c2CSc2ccccc2-3)cc1Cl` is inactive: 7.34%; for `O=C(Cn1nc(Cc2cccnc2)c2ccccc2c1=O)Nc1cccc(C(F)(F)F)c1` it is inactive: -38.5%.

Regarding `Cc1ccc(NC(=O)Cn2c(C)cc(C)c(C#N)c2=O)cc1F`, the “activity change, positive = activation” value was inactive: 9.34%.

For `Cc1cc(C)c(/C=C/c2onc(C)c2S(=O)(=O)N2CCC(C(=O)N3CCN(c4ccc(Cl)cc4)CC3)CC2)c(C)c1`, the “activity change, positive = activation” value is inactive: 15%. For `Cc1ccc(C(=O)Nc2nc3n(n2)C(c2ccccc2)C=C(c2ccccc2)N3)cc1` (stereo not given) the value was inactive: -10.5%.

Take `NC(=O)OCC(COC(N)=O)c1ccccc1`: the activity change, positive = activation result was “inactive”.

Regarding `CC1CCc2onc(C(=O)N3CCN(c4cccc(C(F)(F)F)c4)CC3)c2C1` (stereo not given), the “activity change, positive = activation” value is inactive: -28.4%.

In the case of `COc1ccc(-c2nc3ccccc3s2)cc1NC(=O)c1cc2ccccc2o1`, the activity change, positive = activation is inactive: 10.1% [at 11.5 µM, percent change from vehicle, -100% = no light]. The figure for `Cc1ccc(NC(=O)CCNS(=O)(=O)c2cccc3nsnc23)cc1` is inactive: -7.14%.

As for `CN(CC(=O)Nc1ccc(F)cc1F)S(=O)(=O)c1ccc(C(=O)N2CCOCC2)s1`, the “activity change, positive = activation” value is inactive: -9.6%. For `CCCCc1ccc(NC(=O)COc2cccc3c(=O)n(C)ccc23)cc1` the value was inactive: -42.4%; for `CCOC(=O)c1c(C)c(-c2ccccc2)n(CC(=O)NCCc2ccc(C)cc2)c1C`, inactive: -5.1%.

Turning to `Cc1ccc2nc(CSc3nnc(NC(=O)COc4ccccc4)s3)cc(=O)n2c1`, the “activity change, positive = activation” value is inactive: 0.0174%.

With `Cc1ccc(NC(=O)N2CCC(CN3CCC(C)CC3)CC2)cc1F`, the “activity change, positive = activation” value is inactive: 14.4%. The figure for `COc1ccc(-c2cc(C(F)(F)F)nc(SCC(=O)NCCc3ccc(OC)c(OC)c3)n2)cc1` is inactive: -7.19%; for `CCCc1cc(=O)n2[nH]c(-c3ccc(C)cc3)nc2n1` it is inactive: 10.4%.

As to `Cc1ccc(NC(=O)C2CCCN(c3nnc(-n4c(C)ccc4C)s3)C2)cc1Cl` (stereo not given), the “activity change, positive = activation” value is inactive: 2.57%. For `COc1cccc(CNC(=O)C(NS(=O)(=O)c2ccc3nc(C)sc3c2)C(C)C)c1` (stereo not given) the value was inactive: -10.5%. The figure for `Cc1ccc(C(CC(=O)Nc2cc(C)cc(C)c2)N2Cc3ccccc3C2=O)cc1` (stereo not given) is inactive: -45.8%.

Consider `Cc1cccc(NC(=O)CSc2nnc(C)c(=O)[nH]2)c1`, for which the “activity change, positive = activation” value is inactive: -10.4%.

As for `CCS(=O)(=O)NCC(c1ccco1)N1CCN(c2ccc(OC)cc2)CC1` (stereo not given), the “activity change, positive = activation” value is inactive: -12.9%. For `Cc1ccccc1CN1c2ccccc2-c2nc(SCC(=O)NCCc3ccccc3)ncc2S1(=O)=O` the value was inactive: 16.3%; for `CCN(CC)c1ccc(-n2nc3cc(C)c(NC(=O)c4ccccc4F)cc3n2)cc1`, inactive: 13.2% [at 11.5 µM, percent change from vehicle, -100% = no light]. For `COc1ccc(S(=O)(=O)N(C)Cc2nc(-c3cccc(C)c3)no2)cc1` the value was inactive: -25.5%.

Values taken from PubChem BioAssay AID1508624 (National Center for Advancing Translational Sciences (NCATS), 2021).
